Out of some 48,000 compounds screened, about 120 (0.25%) were called active. Another 4% or so got no clear call; they are omitted. Calls follow the shape of the dose curve; as a rule, active = well fitted activation curve with a large enough effect; inconclusive = small, poorly fitted or top-dose-only effect, or another doubt; inactive = no such curve, though single readings can be large or run the other way. The list shows a part of the results.
Assay: Primary qHTS for Identification of Small Molecule Activators of Huntingtin-Antisense Promoter Activity; also: nearly all actives have a fitted effect of over 55% in size
Details: HEK293 HTT-AS promoter firefly luciferase reporter (activity 0% = vehicle and -100% = no light), 24 h; series mostly up to 57.5 µM; activity change, positive = activation: at the top concentration
Method in brief: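 HEK293 luciferase promoter-reporter cells (2,500/well) plated 24 h, then compounds added at up to 57.5 uM final for 24 h at 37 °C. Firefly luminescence by Dual-Glo, normalized to vehicle (0%) and zero RLU (-100%).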

Compound	activity change, positive = activation
O=C(Nc1ccc(Br)cc1F)c1cc(S(=O)(=O)NC2CCCCC2)ccc1F	inactive: -23.7%
CCOC(=O)c1ccc(NC(=O)CSc2nc3cc4ccccc4cc3[nH]2)cc1	inactive: -4.72%
Cc1nc2nc(NC(=O)c3ccc(C(C)(C)C)cc3)[nH]n2c(=O)c1Cc1ccccc1	inactive: 8.83%
COc1ccc(CNC(=O)Cn2ccc3cc(S(=O)(=O)N4CCCCC4)ccc32)cc1OC	inactive: -30.3%
Cc1ccc(-n2c(=O)c3c4c(sc3n(Cc3cc(=O)n5ccccc5n3)c2=O)CCC4)cc1C	inactive: 21%
Cc1ccc(Cl)cc1-n1ncc2c(N3CCN(Cc4ccccc4)CC3)ncnc21	inactive: -95.3%
COc1ccc(Cc2cnc(N)nc2N)cc1OC	inactive: -5.71%
CCOC(=O)c1c(NC(=O)c2ccc(S(=O)(=O)N(C)C3CCCCC3)cc2)sc2c1CCN(C(C)C)C2	inactive: -22.1%
Cc1noc(C)c1S(=O)(=O)N(CC(=O)NCCc1ccccc1)c1ccc(C(C)C)cc1	inactive: -18.9%
CCOCCCN1C(=O)c2ccccc2CC1(C)C(=O)NC1CCCCC1 (stereo not drawn)	inactive: -5.52%
COC(=O)c1ccccc1NC(=O)c1sc2nc(C)cc(C)c2c1NC(=O)c1ccccc1OC	inactive: 1.35%
COc1ccc(NC(=O)CSc2nc3c(oc4ccccc43)c(=O)n2Cc2ccco2)cc1Cl	inactive: -45.3%
COc1ccc(CNC(=O)CN2C(=O)CSc3ccc(S(=O)(=O)N4CCC(C)CC4)cc32)cc1	inactive: -24.4%
CC1CCN(S(=O)(=O)c2nnc(NC(=O)c3cccc(Cl)c3)s2)CC1	inactive: -69.7%
Cc1ccc(CCNc2ncnc3onc(-c4ccc(Cl)cc4)c23)cc1	inactive: -21.8%
COc1ccc(-c2nc(S(=O)(=O)c3ccc(Cl)cc3)c(NCc3ccccc3)o2)cc1	inactive: 7.34%
COc1cc(-c2nc(Cn3nnc(C(=O)Nc4cccc(Cl)c4)c3C)c(C)o2)cc(OC)c1OC	inactive: 0.129%
COc1ccc(CNC(=O)C2CCC(CNS(=O)(=O)c3ccc4c(c3)CCCC(=O)N4)CC2)cc1 (stereo not drawn)	inactive: -17.4%
CCc1cccc(-n2c(=O)c3cccnc3n2CC(=O)Nc2c(C)cc(C)cc2C)c1	inactive: -7.82%
COc1cc(S(=O)(=O)NCCc2c(C)[nH]c3ccccc23)c(C)cc1C	inactive: -19.7%
COc1ccc(N(Cc2cc3cccc(C)c3[nH]c2=O)C(=O)c2cccc(Cl)c2)cc1	inactive: -32.1%
COc1ccc2nc(N(Cc3cccnc3)C(=O)Cc3ccccc3)sc2c1	inactive: -3.7%
CC(=O)N1CCc2cc(S(=O)(=O)C(C)CC(=O)Nc3ccc(Br)c(C)c3)ccc21 (stereo not drawn)	inactive: -11.4%
CN(C)S(=O)(=O)c1ccc(C(=O)NCCSc2c(-c3ccccc3)[nH]c3ccccc23)cc1	inactive: -42.6%

Compound	activity change, positive = activation
CC(=O)Nc1ccc(S(=O)(=O)NC2=NCN(CCO)CN2)cc1	inactive: -5.73%
COc1ccc(NC(=O)C2=C(C)Nc3ncnn3C2c2cccn2C)cc1 (stereo not drawn)	inactive: -6.54%
Fc1cccc(-c2nnn3c2nc(NC2CCCCC2)c2ccccc23)c1	inactive: -18.6%
COc1ccccc1CNC(=O)CN1C(=O)COc2ccc(S(=O)(=O)NC3CCCC3)cc21	inactive: -7.79%
Cc1cccc(-n2c(CNC(=O)c3cccc(F)c3)nnc2SCC(=O)Nc2ccccc2F)c1	inactive: -16.4%
CC1CCN(CC2CCN(C(=O)Nc3ccc(Br)cc3F)CC2)CC1	inactive: -6.64%
CC(C)(C)C1CCc2oc3ccc(NS(=O)(=O)c4ccc(C(=O)O)cc4)cc3c2C1 (stereo not drawn)	inactive: -10.6%
COc1ccc(Cn2c(SCC(=O)N(C)Cc3ccccc3)nc3ccccc32)cc1	inactive: 6.37%
COc1ccc(CCNc2ncnc3c2cnn3-c2cc(Cl)ccc2C)cc1	inactive: -36.8%
Cc1ccc(NC(=O)Cn2c(=O)nc(-c3ccccc3)c3ccccc32)cc1F	inactive: -3.88%
Cc1cccc(-c2noc(-c3ccc(N4CCOCC4)c([N+](=O)[O-])c3)n2)c1	inactive: -11.9%
CC1CCN(S(=O)(=O)c2ccc3c(ccc(=O)n3CC(=O)Nc3cccc(F)c3)c2)CC1	inactive: -35.7%
O=C(Nc1cnc(N2CCN(c3ccccc3)CC2)c(C(=O)O)c1)c1cccs1	inactive: 4.22%
Cc1ccc(NC(=O)c2cc(S(=O)(=O)NCCc3ccc(Cl)cc3)ccc2F)cc1	inactive: -33%
COc1ccc(C2N=C(N)Nc3nc4ccccc4n32)cc1 (stereo not drawn)	inactive: -16.4%
CC1=C(C(=O)N2CCN(c3cccc(Cl)c3)CC2)C2(CCCCC2)OC1=O	inactive: -13.6%
CCOC(=O)C1CCN(c2nc3c(S(=O)(=O)c4ccc(C)c(C)c4)nnn3c3ccc(Cl)cc23)CC1	inactive: -27.4%
CCOC(=O)CSc1nc2c(sc3ccccc32)c(=O)n1CCO	inactive: 0%
COc1cc(C)c(Sc2cnc(NC(=O)c3ccc(CNC(C)C(C)C)cc3)s2)cc1C(=O)N1CCN(C(C)=O)CC1 (stereo not drawn)	inactive: -11.5%
CCN(CC)CCCNc1ncnc2c1cnn2-c1ccc(C)c(C)c1	inactive: 21.7%
Cc1csc2nc(COc3cccc(NC(=O)c4ccccc4F)c3)cc(=O)n12	inactive: -2.71%
Cc1nn(CC(=O)N2CCN(c3ccc(Cl)cc3)CC2)c(=O)c2cccn12	inactive: -4.66%
COc1ccc(OCC(O)Cn2c(NCCO)nc3c2c(=O)n(C)c(=O)n3C)cc1 (stereo not drawn)	inactive: -67.4%
O=C(CSc1nc2c([nH]c3ccccc32)c(=O)n1-c1ccc(Cl)cc1)c1ccccc1	inactive: -12%

Compound	activity change, positive = activation
Cc1cc(C)cc(NC(=O)Cn2cc(C(=O)C3CCCCC3)c3ccccc32)c1	inactive: -23.1%
Cc1ccc2nc(COc3ccccc3NC(=O)c3ccc(F)cc3)cc(=O)n2c1	inactive: -9.33%
Cc1ccc2c(=O)cc(C(=O)Nc3ccc(S(=O)(=O)Nc4ncccn4)cc3)oc2c1C	inactive: 1.98%
Cc1cc(C)c(NC(=O)C2CCN(c3nn4c(=O)cc(C)nc4s3)CC2)c(C)c1	inactive: -5.28%
COc1ccc(NCc2cccn2-c2nnc(N3CCCCC3)s2)cc1OC	inactive: -54.4%
CCOc1ccc(NC(=O)c2c(NC(=O)Cc3ccccc3)sc3c2CCCCC3)cc1	inactive: -10.1%
Cc1ccc(-n2c(=O)c3c(c4cc(C)ccc4n3C)n(CC(=O)N3CCCC3)c2=O)cc1	inactive: -13.9%
CC(Cc1ccccc1)(NC(=O)CN)c1ccccc1 (stereo not drawn)	inactive: 0.62%
COc1ccccc1CNC(=O)c1cn(C)c2ccc(S(=O)(=O)N(C)C3CCCCC3)cc2c1=O	inactive: -14.6%
Cc1ccc(NC(=O)CSc2cn(CC(=O)N3CCCC3)c3ccccc23)cc1Cl	inactive: -25.6%
CCOc1ccc(NS(=O)(=O)c2ccc3c(c2)CCCN3C(=O)C2CCC2)cc1	inactive: -28.4%
Cc1cc(NC(=O)CN2C(=O)c3cccnc3Sc3ccccc32)ccc1Br	inactive: -2.38%
COc1ccc(OC)c2sc(N(Cc3cccnc3)C(=O)c3ccco3)nc12	inactive: -25.1%
CCc1ccccc1NC(=O)Nc1nnc(N(CC)c2ccccc2)s1	inactive: -14.9%
CCN1CCN(c2ncc3c(n2)CC(c2ccccc2O)CC3=O)CC1 (stereo not drawn)	inactive: -14.5%
Cc1ccc(CNC(=O)c2cc(-c3ccc(Cl)cc3)on2)cc1	inactive: 4.16%
Cc1ccc2oc(=O)c(S(=O)(=O)c3ccc(C(C)(C)C)cc3)cc2c1	inactive: 16%
CN(C)c1ccc(CNC(=O)CN2CCSc3ccc(S(=O)(=O)N(C)C)cc32)cc1	inactive: -28.5%
Cc1ccc(CNC(=O)CNS(=O)(=O)c2cccs2)cc1	inactive: -5.7%
Cc1ccc(NC(=O)C2CCN(c3nn4cc(-c5ccc(C)cc5)nc4s3)CC2)cc1	inactive: 21.5%
CCN(c1ccccc1)S(=O)(=O)c1nnc(NC(=O)COc2cccc(C)c2)s1	inactive: -21.3%
O=C(Nc1ccc(Br)cc1)C1CCCN1S(=O)(=O)c1ccc(F)cc1 (stereo not drawn)	inactive: -42.1%
CC(C)(C)c1ccc(C(=O)Nc2sc3c(c2C#N)CCC(C(C)(C)C)C3)cc1 (stereo not drawn)	inactive: 7.2%
C[C@H](CCC(=O)O)[C@H]1CC[C@H]2[C@H]3[C@@H](CC[C@]12C)[C@@]1(C)CC[C@@H](O)C[C@H]1C[C@@H]3O	inactive: -22.1%

Compound	activity change, positive = activation
COc1ccc(CNC(=O)c2oc3c(c2C)-c2nn(Cc4ccc(Cl)cc4)cc2CC3)cc1	inactive: -35.7%
CCOc1ccc(NC(=O)Cn2c(=O)n(CC(=O)NCc3ccccc3Cl)c(=O)c3sccc32)cc1	inactive: -13.9%
CCN(C(=O)c1cc2c(=O)oc3ccc(C)cc3c2s1)c1ccccc1C	inactive: -11.7%
CCN(CC)S(=O)(=O)c1ccc2nc(NC(=O)c3cncc(Br)c3)sc2c1	inactive: -11.9%
Cc1cccn2c(=O)c(C(=O)NC(C)c3ccccc3)cnc12 (stereo not drawn)	inactive: 0.439%
Cc1ccc(OCc2nc(-c3ccc(C(=O)NCc4ccc(OC(C)C)cc4)cc3)oc2C)cc1	inactive: -12.6%
CCOc1ccc(N(C)S(=O)(=O)c2ccc3[nH]cc(C(=O)NCc4ccccc4)c(=O)c3c2)cc1	inactive: -1.86%
Cc1cc(C)cc(N2C(=O)N(Cc3cccc(F)c3)c3ccccc3S2(=O)=O)c1	inactive: -21.9%
Cc1ccc(C(=O)c2cn(Cc3ccc(Cl)cc3)c3nc(C)ccc3c2=O)cc1	inactive: 1.43%
COc1ccc(N2CCN(C(=O)CSc3n[nH]c(-c4ccccc4Cl)n3)CC2)cc1	inactive: -13.2%
Cc1ccc(C)c(CN2C(=O)c3ccccc3S(=O)(=O)c3ccc(C(=O)NCCC4=CCCCC4)cc32)c1	inactive: -18.4%
Cc1cc(C)c(NC(=O)C(C)n2nnc3sc4c(c3c2=O)CCCC4)c(C)c1 (stereo not drawn)	inactive: -4.96%
COc1ccc(Nc2oc(-c3ccc(COc4ccccc4C)o3)nc2C#N)cc1	inactive: -24.1%
COc1ccc(CCn2c3c(c(=O)[nH]c2=O)C(NC(=O)c2ccc(C(C)(C)C)cc2)(C(F)(F)F)C(=O)N3)cc1OC (stereo not drawn)	inactive: -8.7%
CC(=O)c1cc(-c2ccc(F)cc2)n(CC(=O)Nc2cc(C)cc(C)c2)c1C	inactive: -18.4%
COc1ccccc1Cc1nc2ccccc2nc1SCC(=O)N1CCN(c2ccccc2)CC1	inactive: -4.1%
Cc1ccc(C(C)C)c(OCCSc2nc3ccccc3n2CC(O)CO)c1 (stereo not drawn)	inactive: -33.6%
COc1cccc(NC(=O)/C(C#N)=C/c2c(C)n(Cc3ccc(Cl)cc3)c3ccccc23)c1	inactive: -8.33%
CC(C)Cn1c(-c2ccc(S(=O)(=O)N3CCOCC3)cc2)csc1=Nc1cc(Cl)ccc1Cl	inactive: 0%
O=C(NCc1ccco1)c1ccc2c(c1)N(Cc1ccc(Cl)cc1)C(=O)c1ccccc1S2	inactive: -38.8%
CCOc1ccc(Nc2nc3c(S(=O)(=O)c4ccc(C(C)C)cc4)nnn3c3ccsc23)cc1	inactive: -14.1%

From PubChem BioAssay AID1508624 (National Center for Advancing Translational Sciences (NCATS), 2021)
